# In all, about 33,000 sequences were measured (“E-score (-0.5 to 0.5)”: median about -0.012, highest 2% from about 0.29 on). The list shows a part of the results.
# Biological target: T1, Ybr033w (UniProt P38073)
# T1 sequence: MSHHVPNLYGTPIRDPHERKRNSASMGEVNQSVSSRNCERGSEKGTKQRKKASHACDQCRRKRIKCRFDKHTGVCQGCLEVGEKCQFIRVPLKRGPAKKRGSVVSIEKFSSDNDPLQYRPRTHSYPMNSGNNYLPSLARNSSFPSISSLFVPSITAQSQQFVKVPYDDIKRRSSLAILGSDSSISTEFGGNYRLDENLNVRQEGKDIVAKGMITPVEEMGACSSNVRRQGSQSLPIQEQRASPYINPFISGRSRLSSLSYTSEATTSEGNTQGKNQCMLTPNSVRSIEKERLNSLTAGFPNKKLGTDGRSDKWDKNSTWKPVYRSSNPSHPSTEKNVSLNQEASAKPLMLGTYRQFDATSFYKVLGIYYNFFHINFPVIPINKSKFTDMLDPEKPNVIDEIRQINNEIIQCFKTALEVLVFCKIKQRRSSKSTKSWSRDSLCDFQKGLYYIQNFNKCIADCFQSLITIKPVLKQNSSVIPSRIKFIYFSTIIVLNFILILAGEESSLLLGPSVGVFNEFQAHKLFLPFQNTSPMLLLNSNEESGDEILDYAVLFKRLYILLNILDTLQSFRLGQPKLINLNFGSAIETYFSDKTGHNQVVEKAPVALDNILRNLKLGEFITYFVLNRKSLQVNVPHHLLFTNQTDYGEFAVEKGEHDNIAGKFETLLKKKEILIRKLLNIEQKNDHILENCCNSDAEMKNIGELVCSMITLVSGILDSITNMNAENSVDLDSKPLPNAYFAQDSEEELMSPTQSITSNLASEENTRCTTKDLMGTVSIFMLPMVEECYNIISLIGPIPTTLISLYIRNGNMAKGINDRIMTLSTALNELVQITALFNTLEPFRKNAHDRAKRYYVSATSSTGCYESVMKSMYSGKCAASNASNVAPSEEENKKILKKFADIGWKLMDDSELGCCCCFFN
# Assay: PBM E-score (8-mer binding enrichment) (E-score (-0.5 to 0.5)); higher = stronger / more preferred TF binding; most listed sequences are background and not binding sites
# Settings: protein concentration: 200 nM; construct: GST-full length
# Summary of the method: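 Bound GST-tagged yeast transcription factors, applied at about 100-200 nM to double-stranded universal all-10-mer Agilent arrays, were detected with fluorescent anti-GST. Scans were normalised with masliner. A modified Wilcoxon-Mann-Whitney statistic, the E-score, was assigned to each ungapped eight-base word pooled with its reverse complement by the Universal PBM Analysis Suite.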
row,Sequence,PBM E-score
1,GCAGCTGA,-0.0558
2,AATCTTTG,0.25
3,AGGTAAAA,0.179
4,TTGTACAA,0.178
5,AATTTATC,0.398
6,AGTAAAGA,0.0944
7,ACCTGGAC,-0.165
8,AATCGGAG,0.0694
9,CTAGATAC,0.186
10,AAAACTAT,0.217
11,CAAGACAA,0.143
12,CCTAGGCA,-0.0795
13,CAGTAAAC,-0.00574
14,ATGTACTG,0.0642
15,ACGTTAGC,0.0319
16,CTCAGGTA,0.0811
17,ACGGCTCC,-0.0407
18,GAGGCCTC,-0.37
19,ACAACGAC,0.118
20,ATTAATAC,0.306
21,CGGTACCA,-0.233
22,CTTTACGA,-0.042
23,ATATTAAA,0.355
24,CCTGAAGC,-0.199
25,TGTTAAAA,0.226

row,Sequence,PBM E-score
1,AAAAAGGA,0.171
2,TAAGGTGA,-0.0199
3,AAGTCCTG,-0.0492
4,ACGCAGGC,-0.13
5,CGAAGTAG,0.112
6,CTCGTAAG,0.156
7,GCATGTAC,-0.156
8,GGTGAGCA,-0.113
9,CATAGCAA,0.0792
10,CCTTACTC,0.138
11,AGGCGGAT,0.036
12,GCGGTGGA,0.00804
13,CACTTCTC,-0.16
14,ATTGCGAC,0.0532
15,CGGCTGAG,-0.284
16,CTCCCGAG,-0.207
17,AGCTTATC,-0.0268
18,CGAGTGCA,0.0861
19,AGAAGCAT,0.141
20,AATACCTA,0.189
21,TCAAGAAA,0.291
22,CGTAATGC,-0.052
23,CGCTACAG,-0.122
24,AAAGCGAT,0.212
25,ATGCTACC,0.0362

row,Sequence,PBM E-score
1,TCCGGTAA,0.0264
2,GAGAAAAA,0.155
3,CACCAAGG,-0.0794
4,CAAGACGC,-0.0286
5,ATTCGATA,0.243
6,AGGAAAAA,0.431
7,ACCCTAAA,0.0972
8,TATTAGAA,0.259
9,GCCGCAAA,0.0878
10,GTATACTA,-0.0742
11,ACCATGGG,-0.191
12,GCAGGTAC,-0.145
13,CCCATGGG,0.0663
14,CAGACGTC,-0.203
15,CAGAAATC,0.144
16,CGCGAATA,0.0756
17,ACCCACAG,-0.0895
18,CGATTTTA,0.0786
19,CCGTGAAC,-0.103
20,ACGATTTC,0.0795
21,AGATCGAT,-0.00686
22,AGAAAATC,0.232
23,CAGCGGGA,-0.263
24,AGTCTCTG,-0.0621
25,ATCAAGTC,0.161

row,Sequence,PBM E-score
1,ACACACCG,-0.12
2,ACGATCTC,-0.153
3,ATACGGAC,-0.119
4,AAGAAAAC,0.125
5,ATATCGAA,0.219
6,CCTGGTTC,-0.0996
7,CTATGTCC,-0.12
8,AAGGTTCT,0.091
9,GAGCGCCA,-0.238
10,CGTTTAGA,0.0439
11,CACCGCAG,0.0948
12,ACTCCATA,-0.0391
13,CGTCGACC,-0.0768
14,ATAGCCGC,-0.16
15,ACGGCGCG,0.0984
16,CACGTTGG,-0.00164
17,GTAGCAAC,0.0603
18,AACAGGCA,-0.0929
19,CTTACACA,0.00885
20,GTCACCCA,-0.125
21,GTCCACAC,0.0487
22,CTGGAATA,0.355
23,ACTGAGTA,0.047
24,GATATATC,0.226
25,AAGACCAG,-0.0673

row,Sequence,PBM E-score
1,AACTACGC,0.07
2,GCTCGGAC,-0.182
3,ATTCTTGC,0.118
4,CGTCTGCC,-0.275
5,ATAATGCA,0.106
6,AATCCCGA,0.193
7,ATAGTTCA,0.202
8,ACATTTCA,0.132
9,GCCGGAAC,0.205
10,AGTTGCAT,0.103
11,ACACCCGG,-0.229
12,CGTGGAAA,0.182
13,ACAGCAAA,0.125
14,ACATACAT,0.226
15,CTTGCTCA,-0.167
16,AATATGGG,0.0909
17,AGAGCATA,-0.0305
18,CGCAGCAC,-0.115
19,CCCGCATC,-0.218
20,GATCCGCA,-0.0555
21,CCTGACAA,-0.11
22,CGAACGAC,-0.0176
23,CCAGGGTC,-0.186
24,TACGGCAA,-0.118
25,AGGCTGTC,-0.166

row,Sequence,PBM E-score
1,AAGCGATT,0.131
2,GAATGGTC,-0.104
3,ACAATGGT,-0.0786
4,CCATAGTC,0.0428
5,ACCTGTAC,-0.0813
6,ATTCCAGG,0.139
7,AACCCCAA,0.0403
8,GATAAGTA,0.205
9,AGACCTCG,0.105
10,CCCGTCCA,-0.158
11,CGAGATCA,0.0446
12,CATTGCCA,0.041
13,CCACTCCA,0.0647
14,CCGCGTGA,-0.04
15,CTTCGGGA,0.0436
16,AGCCGACG,-0.209
17,TCAAGCAA,0.00033
18,AGTACCTG,0.0961
19,CCATTCTA,0.0369
20,ACTTCGTG,0.014
21,AGCTACAT,-0.021
22,ACGCGGCT,-0.0299
23,TATCGTCA,-0.0459
24,CGAAAATC,0.222
25,ACTTTCAA,0.137

row,Sequence,PBM E-score
1,GTAACCAA,0.122
2,GATAAGAC,0.0888
3,GACGTAAA,-0.0587
4,ACACCGGA,-0.0946
5,GCCTGCGC,-0.358
6,GCTGCGTA,-0.091
7,GCGCGGAA,0.0282
8,CAGGTGTA,7e-05
9,GAGACGCA,-0.0768
10,GTCCAATA,-0.00812
11,GAAGGGCC,-0.351
12,CAGTGAAC,0.0188
13,CTATAAGC,-0.0362
14,AAGAAAAT,0.331
15,CGCAATCA,0.0422
16,CAGGTACG,-0.247
17,ATGGCTAC,-0.0319
18,CAAGCGTC,-0.0144
19,AGGCGGGA,-0.117
20,CATGCGGG,-0.212
21,GAGACATC,-0.142
22,GACTACTA,0.122
